For this assay, the target named is T1, recombinant uPAR-Biotin (human, UniProt Q03405 23-303, limits assumed, biotin, site not stated).
T1 construct: also called human uPAR (BLItz)
The experiment in a line: BLItz, uPAR-Biotin on streptavidin biosensor.

T1 sequence (Q03405 23-303 limits assumed): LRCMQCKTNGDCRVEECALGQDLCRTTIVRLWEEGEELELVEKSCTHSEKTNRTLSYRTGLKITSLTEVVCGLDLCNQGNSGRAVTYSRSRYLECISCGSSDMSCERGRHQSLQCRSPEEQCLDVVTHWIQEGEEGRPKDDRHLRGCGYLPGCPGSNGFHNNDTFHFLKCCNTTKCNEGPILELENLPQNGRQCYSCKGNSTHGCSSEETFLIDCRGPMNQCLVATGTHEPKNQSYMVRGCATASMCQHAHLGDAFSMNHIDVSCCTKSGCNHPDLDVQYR

B1: VH-Fc 3 (Fc fusion)
chain: EVQLVESGGGLVQPGGSLRLSCAASGFTFSRYWMSWVRQAPGKALEWIGEINHSGSTNYNPSLKSLVTISRDNSKNTLYLQMNSLRAEDTATYYCARSLVPALSYYYYYGMDVWGQGTTVTVSSSG[skipping human IgG1 Fc]
As for B1, the Kd (usually a measure of binding affinity in units of concentration) came to 9.6 nM; the koff (usually the rate constant with which the complex falls apart) turned out to be 0.0012 s⁻¹; the kon – broadly, a measure of how fast the partners come together – was 120000 M⁻¹ s⁻¹.

B2: VH-Fc 115 (Fc fusion)
chain: EVQLVESGGGLVQPGGSLRLSCKGSGFTFGDYAIGWVRQAPGQRLEWIGWINTNSGSPKYAQGFTGRFTISRDNSKNTLYLQMNSLRAEDTAVYYCATDVVVPWGQGSQVTVSSSG[skipping human IgG1 Fc]
For B2, the Kd turned out to be 71.1 nM, the koff worked out at 0.0024 s⁻¹ and the kon stood at 33000 M⁻¹ s⁻¹.
